Screen size: about 420,000 compounds; about 50,000 (12%) were called active. Inconclusive means that the source gave no clear call. Such entries were picked first, then a sample of the others. Calls come from the whole dose curve; as a rule, active = well fitted inhibition curve with a large enough effect; inconclusive = small, poorly fitted or top-dose-only effect; inactive = flat fitted curve, though single readings scatter. No potency is given beside an inconclusive call; the fits are too rough.
Test: qHTS for Inhibitors of human tyrosyl-DNA phosphodiesterase 1 (TDP1): qHTS in cells in presence of CPT; note: nearly all actives have a fitted effect of over 55% in size
Conditions: chicken DT40 Tdp1-/-;hTDP1 cells + 20 nM CPT, ATP luminescence, 48 h; activity change, negative = growth inhibition: at 46.2 µM (top of the series)
Procedure, shortened: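 Cell growth measured by CellTiter-Glo luminescence after a minimum 48 h, 37 C compound exposure with 20 nM CPT in Tdp1-knockout DT40 cells stably expressing hTDP1, seeded 400/well; qHTS titration format.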
% is set by controls: 0 for no effect and ±100 for the full control effect; potency is the fitted concentration of half-maximal effect; tags give direction and shape of the fitted curve.

| Structure (SMILES) | activity change, negative = growth inhibition | Potency |
| --- | --- | --- |
| OCCCNc1ncnc2c1ncn2[C@H]1CN(C2CCCC2)C[C@@H](CO)O1 | inactive: -12.7% | – |
| O=C(OCc1nc2scc(-c3ccccc3)c2c(=O)[nH]1)c1cc(Cl)ccc1[N+](=O)[O-] | – | inconclusive [inhibitor, single point] |
| CCCCCn1c(-c2cccc(C)c2)nc2ccccc21 | – | inconclusive [inhibitor, single point] |
| O=C(Nc1ccc2c(c1)OCO2)c1cc(-c2ccc(Cl)cc2)on1 | – | inconclusive [inhibitor, partial curve] |
| O=C(COc1ccccc1Cl)NCc1nc(-c2ccccc2)no1 | inactive: -15.1% | – |
| CN(C)C1(CNC(=O)COc2ccc(C(C)(C)C)cc2)CCCCC1 | – | inconclusive [inhibitor, single point] |
| CC(C)(C)C(=O)N1CCN(c2ccc(Cl)cc2[N+](=O)[O-])CC1 | inactive: -15.6% | – |
| CCOc1cc(CNc2ncc(-c3ccc(OC)cc3)n2C)ccc1O | – | inconclusive [inhibitor, single point] |
| O=C(c1ccncc1)N1CCC2(CCCN(c3cccc(-c4ccccc4)c3)C2)CC1 | – | inconclusive [inhibitor, partial curve, poor fit] |
| N/C(=N\OC(=O)CC1CCCCC1)c1ccccc1 | inactive: 3.6% | – |
| COCCCNCCCOc1ccc(C)cc1Br | – | inconclusive [inhibitor, single point] |
| COc1ccc(N2CCN(C(CNC(=O)C(=O)NCc3ccc4c(c3)OCO4)c3ccco3)CC2)cc1 (configuration not stated) | – | inconclusive [inhibitor, single point] |
| Cc1ccccc1N(CC(=O)NC1CCCCC1)C(=O)CCCC(=O)Nc1ccccn1 | inactive: 7.55% | – |
| Cc1cc(C)c(NC(=O)c2cccc(NC(=O)c3ccco3)c2)c(C)c1 | – | inconclusive [inhibitor, partial curve] |
| Cc1cc(C)cc(-n2ccnc(NCc3ccc(F)cc3)c2=O)c1 | – | inconclusive [inhibitor, single point] |
| CCC1CCCCN1C(=S)Nc1ccc(OC(F)F)cc1 (configuration not stated) | inactive: -11% | – |
| CC(=O)Nc1ccc(C(C#N)=Cc2ccc(N(C)CCC#N)cc2)cc1 | – | inconclusive [inhibitor, single point] |
| CS(=O)(=O)Nc1ccc(C(=O)Nc2ccccc2C(=O)NCc2ccco2)cc1 | inactive: -18% | – |
| O=C(NCC(c1ccco1)N1CCc2ccccc2C1)c1ccc(Cl)c([N+](=O)[O-])c1 (configuration not stated) | – | inconclusive [inhibitor, single point] |
| COc1ccc(-c2cc(=O)c3c(O)c(OC)c(OC)c(OC)c3o2)cc1OC | – | inconclusive [inhibitor, full curve, poor fit] |
| Cc1ccc(C(=O)C2CCN(CC(=O)NCc3ccc(F)cc3)CC2)cc1 | – | inconclusive [inhibitor, single point] |
| COc1ccc(Cl)cc1NC(=O)CSc1nc(=O)[nH]c2c1CCCC2 | – | inconclusive [inhibitor, single point] |
| CCOC(=O)C1CCN(S(=O)(=O)c2ccc3c(c2)CCCN3C(C)=O)CC1 | inactive: -5.79% | – |
| CC/C(=N\NC(=O)c1nnn(-c2nonc2N)c1-c1cccc(OC)c1)c1ccc(C)cc1 | – | inconclusive [inhibitor, single point] |

| Structure (SMILES) | activity change, negative = growth inhibition | Potency |
| --- | --- | --- |
| O=C(Cn1cncn1)c1ccccc1 | inactive: -1.54% | – |
| CCOC(=O)C1CCCN(Cc2ccccc2F)C1 (configuration not stated) | inactive: -19.7% | – |
| CC(=O)Nc1ccc(S(=O)(=O)Nc2cc([N+](=O)[O-])ccc2C)cc1 | – | inconclusive [inhibitor, single point] |
| Cc1nc2ccccc2c2oc(C(=O)N3CCC(N4CCCCC4)CC3)cc12 | – | inconclusive [inhibitor, partial curve] |
| Cc1cc(C)c(Cn2c(=O)n(CCCC(=O)NCc3ccco3)c(=O)c3sccc32)c(C)c1 | – | inconclusive [inhibitor, partial curve] |
| COc1ccc(C(=O)NCCn2cc(SCC(=O)NCC3CCCO3)c3ccccc32)cc1 (configuration not stated) | inactive: -22.5% | – |
| CCOc1ccc(CNC(=O)C2=Cc3cc(Br)ccc3OC2)cc1OC | – | inconclusive [inhibitor, single point] |
| Cc1c(C#N)c(=O)oc2ccc3ccccc3c12 | inactive: 4.87% | – |
| Cc1cccc(N(C)Cc2nnc(-c3cccc(Br)c3)o2)c1 | – | inconclusive [inhibitor, partial curve] |
| COc1ccc(-c2c(-c3ccsc3)oc3ccc(N4CCOCC4)cc23)cc1 | – | inconclusive [inhibitor, single point] |
| [O-]/[N+](=C\c1ccccc1)c1ccc(Br)cc1 | – | inconclusive [inhibitor, single point] |
| Cc1ccc(Cn2c(=O)n(-c3ccc(C)c(C)c3)c(=O)c3c(C)c(C)sc32)cc1 | – | inconclusive [inhibitor, single point] |
| Cc1c(NC(=O)CSc2nc3ccc(Cl)cc3[nH]2)c(=O)n(-c2ccccc2)n1C | – | inconclusive [inhibitor, single point] |
| COc1ccc(N(CC(=O)NC2CC3CCC2C3)S(=O)(=O)c2ccccc2)cc1Cl (configuration not stated) | – | inconclusive [inhibitor, single point] |
| NC(=O)c1nsc(C(=O)N(c2ccccc2)C(C(=O)NCC2CCCO2)c2cccs2)c1N (configuration not stated) | – | active: 23.1 µM |
| O=C(NC1CCCCC1)C(c1ccccc1F)n1c(=O)c(-c2ccco2)nc2ccccc21 (configuration not stated) | – | inconclusive [inhibitor, single point] |
| Cc1ccccc1OC(C)c1nc(-c2ccccc2)no1 (configuration not stated) | inactive: 5.7% | – |
| COc1ccc(C(=O)O/N=C(\N)c2ccccc2Cl)cc1OC | – | inconclusive [inhibitor, single point] |
| CCCNC(=O)CC1Sc2ccccc2NC1=O (configuration not stated) | inactive: -20.7% | – |
| COc1ccc(CNC(=O)c2sc(=S)n(-c3ccccc3)c2N)cc1 | – | inconclusive [inhibitor, single point] |
| CC1CCCCN1C(=O)COC(=O)c1cccc(NS(=O)(=O)c2ccccc2)c1 (configuration not stated) | inactive: -13.2% | – |
| Clc1ccc(/C=C/c2ccnc3ccccc23)cc1 | – | active: 10 µM |
| CCOC(=O)C(=CNc1ccc(NC2=NCC(C)S2)cc1)C(=O)OCC (configuration not stated) | – | active: 9.2 µM |
| Cc1ccc(NCCC(=O)c2cccs2)cc1 | – | active: 2.91 µM |

| Structure (SMILES) | activity change, negative = growth inhibition | Potency |
| --- | --- | --- |
| CC(c1ccccc1)N1C(=O)c2ccccc2C1(O)Cc1ccccc1 (configuration not stated) | – | inconclusive [inhibitor, single point] |
| Clc1ccc(CNc2ccc(CNc3ncn[nH]3)cc2)cc1 | – | inconclusive [inhibitor, single point] |
| CN(C)c1ccc(-c2ccc3ncnc(N(C)Cc4ccco4)c3c2)cc1 | – | active: 4.11 µM |
| O=C(NN(CC(O)COc1ccccc1)CC(O)COc1ccccc1)c1ccccc1 (configuration not stated) | inactive: 8.18% | – |
| CN(C)CCOc1ccccc1Cc1ccccc1 | – | inconclusive [inhibitor, partial curve, poor fit] |
| CCOc1ccc(N/C(=N/c2nc(C)cc(C)n2)NC(=O)CC)cc1 | – | inconclusive [inhibitor, single point] |
| CC(=O)N1c2c(cc(Br)cc2S(=O)(=O)NCc2ccccc2Cl)CC1C (configuration not stated) | – | inconclusive [inhibitor, single point] |
| Cc1ccc(NC(=S)Nc2ccccn2)cc1C | – | active: 23.1 µM |
| Cc1ccccc1-c1nc(CS(=O)(=O)CC(=O)NCc2ccc(F)cc2)c(C)o1 | – | inconclusive [inhibitor, partial curve, poor fit] |
| O=C1CCC(C(=O)OC(C(=O)Nc2ccc([N+](=O)[O-])cc2Br)c2ccccc2)=NN1 (configuration not stated) | – | inconclusive [inhibitor, single point] |
| Cc1cccc2c(N)c3c(nc12)CCCC3 (tested in a mixture with another compound) | inactive: -2.48% | – |
| C=CCn1c(SCC(=O)NC2CCCCC2)nnc1C1CCCCC1 | – | inconclusive [inhibitor, partial curve] |
| CC(=O)Nc1ccc2nc(SCC(=O)NCCOc3ccccc3)sc2c1 | – | active: 14.6 µM |
| O=C(Nc1ccccn1)N1CCOCC1 | – | inconclusive [inhibitor, partial curve] |
| O=C(C[C@@H]1C/C=C\C[C@@H](Cc2ccc(F)cc2)C(=O)OCCNC1=O)NCCO | inactive: 6.82% | – |
| CCOC(=O)C1=CN(Cc2ccc(Br)cc2)S(=O)(=O)N(C)C1C (configuration not stated) | – | inconclusive [inhibitor, single point] |
| COc1ccccc1CN1CC[C@@]2(CCCN(C(=O)c3cc(C(F)(F)F)cc(C(F)(F)F)c3)C2)C1 | – | inconclusive [inhibitor, single point] |
| O=C(NCc1cccnc1)C1CCN(C(=O)c2ccc(Cl)cc2Cl)CC1 | inactive: -14.6% | – |
| Cc1ccc(-c2nnc(Nc3cccc(O)c3)c3ccccc23)cc1S(=O)(=O)N1CCCCC1 | – | active: 18.4 µM |
| COc1ccc(-c2cc(C(=O)Nc3cccc(S(=O)(=O)NCc4ccco4)c3)c3ccccc3n2)cc1OC | – | active: 10.3 µM |
| CCOc1ccc(OCC(=O)OC(C)C(=O)NC2CCCCC2C)cc1 (configuration not stated) | inactive: -20.9% | – |
| COc1ccc(-c2ccc(CN3C(C)C(=O)N(Cc4cn(CC5CCCCC5)nn4)CCS3(=O)=O)cc2)cc1 (configuration not stated) | – | active: 14.6 µM |
| COc1cccc(CNC(=O)CCC2CCCN(C(=O)c3ccccc3N(C)C)C2)c1 (configuration not stated) | – | inconclusive [inhibitor, partial curve] |
| COc1ccc(CCNC(=O)c2cc(S(=O)(=O)N3CCCC(C)C3)cn2C)cc1OC (configuration not stated) | – | inconclusive [inhibitor, partial curve, poor fit] |
